Source: the supplement of paper PMC10338343
± gives the standard deviation. The entries are a selection whose mix differs from that of the whole data set.

Test system: MIWI (PIWIL1) piRISC loaded with L1MC piRNA (30 nt)
Assay: pre-steady-state target cleavage rate (min^-1); MIWI and MILI are mouse PIWI proteins and EfPiwi is from a freshwater sponge; tags in brackets are library labels; higher = faster piRNA-guided slicing of the target
Details: guide: L1MC piRNA 5'p-UAACUAAAUACUAUGCAAGCUGUAGGUCCU; auxiliary factor: 500 nM mouse GTSF1
Summary of the method: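 Cleave-'n-Seq reactions paired 0.1 nM transcribed, DNA-blocked target RNA library with 1 nM active affinity-purified piRISC holding one synthetic guide, plus or minus 500 nM GTSF1 partner protein, in HEPES–potassium acetate buffer at 33 °C for 0–8 or 0–960 min. After sequencing of uncleaved targets and normalisation to depth and weakly complementary targets, the pre-steady-state cleavage rate was taken from a burst-and-steady-state fit. Three trials were pooled, and k3 was capped at 0.0001 min^-1.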

Sequence | pre-steady-state target cleavage rate
UCCUGGAUGAGCAAGCAUAGUAUUUAGUAA | 0.0379 ± 0.01
UCCUGGAUGAGCUUGCAUAGCUAUUUAGUUA | 0.00386 ± 0.0029
UCCACCUACAGCUUGCAUAGUAUUUAUUA | 0.263 ± 0.041
UCCUGCUACAGCUUGCAUUGUAUUUAGAAA | 0.262 ± 0.039
UCCACCUACAGCUUCCAUAGUAAUUAGUUA | 0.0401 ± 0.015
UCCUGGAUGAGCUUCCAUUGUAUUUAGUUA | 0.00797 ± 0.0053
UCCACCUACAGCUUCCAUUGUAUUUAGUUA | 0.112 ± 0.019
UCCUGGAUGUCGAACGUAAGUAAAUAGUUA | < 0.0001
UCCUGCUACAGCUUGCAUAGUUAUUUCAAA | 0.01 ± 0.0048
UCGACCUACAGCUUGCUUAGUAUUUACAAA | 0.309 ± 0.042
AGGACCUACAGCUUGCAAUGUAUUUAGAAA | 0.145 ± 0.025
UCCUGGAACAGCUUCCAUAGUAUUUAGUAA | 0.112 ± 0.028
UCCUGGAUGUCGAACGUUUGUAUUUAGUAA | < 0.0001
AGGACCUACAGCUUGCAUAGAUAUUUCAAA | 0.35 ± 0.12
UCCUGGAUGUCCUUGCAUACUAUUUAGUAA | 0.00563 ± 0.0043
UGGACCUACAGCUUGCAUAGUUUUUACAAA | 0.0913 ± 0.017
UCCACCUACAGCAAGCAUAGUAUUUAGAAA | 0.243 ± 0.035
UGGACCUACAGCUUGCAUACAAUUUAGUAA | 0.00447 ± 0.0027

Sequence | pre-steady-state target cleavage rate
UGGACCUACAGCUUCCAUAGUAAUUAGUUA | 0.0113 ± 0.0031
UCCUGGAUGUCCUUGCAAAGUUUUUAGUUA | 0.00466 ± 0.0041
UCCUGGUACACGUUGCAUAGUAUUUAGAAA | 0.0204 ± 0.01
UCCUGGAUGAGCUACCAUAGUAUUUAGUUA | 0.0107 ± 0.0041
UCCUGGAUGUCGAACGUAUGUAUUUAUUUA | < 0.0001
UCCUGGAUGUCGAAGCAUAGUAUUUAGUGA | 0.00593 ± 0.0034
UCCUGGUACACGAUGCAUAGUAUUUAGUUA | 0.164 ± 0.037
UGGACCUACAGCUACGAUAGUAUUUAGUUA | 0.126 ± 0.018
AGGUGGUACAGCUUGCAUAGUAUUUUCAAA | 0.102 ± 0.023
UCCUCCUACAGCUUGCAUAGUAAAUAGAAA | 0.191 ± 0.04
UCCUGGAACAGCUUGCAUAGUAAUUACAAA | 0.129 ± 0.038
UCCUGCUACAGCUUGCAUAGUAUAUACAAA | 0.248 ± 0.039
UCCUGCUACAGCAUGCAUAGUAUUUACAAA | 0.201 ± 0.042
AGGACCUACAGCUUCGUUAGUAUUUAGAAA | 0.00714 ± 0.0039
UCGACCUACAGCUUGCAUAGUAUAAUGAAA | 0.366 ± 0.044
UCCUGGAUCACGAUGCAUAGUAUUUAGUAA | 0.00608 ± 0.0037
UCCACCUACAGCUUGCAAUCUAUUUAGUUA | 0.194 ± 0.018
UCCUGGUACAGGAUGCAUAGUAUUUAGAAA | 0.0179 ± 0.0065

Same assay, conditions: guide: L1MC piRNA 5'p-UAACUAAAUACUAUGCAAGCUGUAGGUCCU; auxiliary factor: none (no GTSF1)

Sequence | pre-steady-state target cleavage rate
UCCUGGAUGUCGAACCAUACUAAUUAGUUA | < 0.0001
UCCUGGAUGUCGUUGGUAAGUAUUUAGUUA | < 0.0001
UCCUGGAUGUCGAACGUUAGUAUAAUCAAA [g8:g13:cont:t1A] | < 0.0001
UCCUGGAUGUCGAACGUAUCUAUUUAGUA | < 0.0001
